Source: publication PMC7819943, “Rice protein-binding microarrays: a tool to detect cis-acting elements near promoter regions in rice”
This is one part of the list.

molecular target: T1, OsWOX13 (Oryza sativa, UniProt Q5QMM3 1-267); assay: protein-binding microarray (RPBM); PBS, 2% BSA, 51.3 ng/ul salmon testes DNA, 50 uM zinc acetate, 200 nM TF, 25 C, 1 h; high values mean tight binding; details: protein: recombinant; tags: N-terminal polyhistidine and DsRed monomer fusion (pET32a); label: CyDye5-dUTP incorporated in the synthesized complementary strand; 3' TTTTT single-stranded linker to array surface; dsDNA, one strand shown
T1 sequence: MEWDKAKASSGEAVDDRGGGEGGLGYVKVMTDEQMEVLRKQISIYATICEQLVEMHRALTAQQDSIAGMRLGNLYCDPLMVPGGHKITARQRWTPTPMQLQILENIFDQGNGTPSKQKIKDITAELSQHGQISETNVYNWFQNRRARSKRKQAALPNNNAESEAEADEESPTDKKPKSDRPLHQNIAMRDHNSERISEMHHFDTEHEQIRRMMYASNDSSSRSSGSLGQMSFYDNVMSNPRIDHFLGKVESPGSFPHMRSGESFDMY
Procedure, shortened: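 Ni–NTA purification followed expression in E. coli BL21-CodonPlus of transcription factors fused N-terminally to a polyhistidine tag and DsRed. At 200 nM in PBS with 2% BSA, salmon testes DNA and 50 µM zinc acetate, the protein was incubated for 1 h at 25 °C with a custom Agilent array that had been primer-extended with Cy5-dUTP and blocked with 2% BSA. After washing, the array was read on an Axon 4000B scanner. The binding signal is per-feature fluorescence intensity in arbitrary units.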

Question: “TTAGCAACTGATTAGTAGCAACTGTATTGGTCTCGAGTACCGGAGTCACCTAGTGCAG” was tested. Which binding signal did it give?
Answer: The binding signal was 11600 fluorescence intensity (a.u.).

Question: For “CCGGGATTTTAATTTCTTGGCACCTCGCCTCAGCATATTCCGGAGTCACCTAGTGCAG”, which binding signal is on record?
Answer: Its binding signal is 4600 fluorescence intensity (a.u.).

Question: Which binding signal does the source give for “AAGCACTGCAATGACTAAACATTGATTAGTTACCTATGCACGGAGTCACCTAGTGCAG” here?
Answer: The binding signal was 7540 fluorescence intensity (a.u.).

Question: For “TAAAATTCAAATTTTATATAGTTCAATTAAACTCGGATGGCGGAGTCACCTAGTGCAG”, which binding signal is on record?
Answer: Its binding signal is 6050 fluorescence intensity (a.u.).

Question: How did the binding signal turn out when “ATCTGACCGTTAATTGTCATGGGCATTTTAGTCTTTATGTCGGAGTCACCTAGTGCAG” was run?
Answer: The binding signal was 3820 fluorescence intensity (a.u.).

Question: For “TGGTCTTGTATAATTTAGGGGTGAAGATTTATGGTATTAACGGAGTCACCTAGTGCAG”, which binding signal is on record?
Answer: Its binding signal is 4280 fluorescence intensity (a.u.).

Question: “AATAGTTGGCAATAATTGAAAGGATGAAATCCTAATAGTTCGGAGTCACCTAGTGCAG” was tested. Which binding signal did it give?
Answer: Its binding signal is 10900 fluorescence intensity (a.u.).

Question: How did the binding signal turn out when “CGCCCCAAATTTGCTAGTGTATGGTCATGAGGATGTATAACGGAGTCACCTAGTGCAG” was run?
Answer: Its binding signal is 3310 fluorescence intensity (a.u.).

Question: With “TTGTCGATTGACTTGTGGGGTCTACGTGGGACTCAACCGCCGGAGTCACCTAGTGCAG” as the sequence, how does the binding signal read?
Answer: The binding signal was 8140 fluorescence intensity (a.u.).

Question: With “GGCCCATATAATTAGGAATGGACTAGATGGGTATTGAGTACGGAGTCACCTAGTGCAG” as the sequence, how does the binding signal read?
Answer: Its binding signal is 5070 fluorescence intensity (a.u.).

Question: How did the binding signal turn out when “TGCCTGACTGAATATGTGTGGTCAATCTGAAGACTGCTAACGGAGTCACCTAGTGCAG” was run?
Answer: The binding signal was 4370 fluorescence intensity (a.u.).

Question: For “AAATAATTATATAGATTATGTGTAAATTACGAGACAAATCCGGAGTCACCTAGTGCAG”, which binding signal is on record?
Answer: The binding signal was 19600 fluorescence intensity (a.u.).

Question: How did the binding signal turn out when “TATGATTTATTGAATTCTACAAACCGAAATGCAAACATATCGGAGTCACCTAGTGCAG” was run?
Answer: The binding signal was 24000 fluorescence intensity (a.u.).

Question: For “GTACTAATTAATTACCATCCTAATTTAGACCATCTTTATACGGAGTCACCTAGTGCAG”, which binding signal is on record?
Answer: The binding signal was 35500 fluorescence intensity (a.u.).

Question: How did the binding signal turn out when “ATCAGAGCTAAATTGAATTAATGAGGGTAAATTGGTCATTCGGAGTCACCTAGTGCAG” was run?
Answer: The binding signal was 15700 fluorescence intensity (a.u.).

Question: “AACAAATTAAATAATCCACGAGTTCATTATCATCATGTAACGGAGTCACCTAGTGCAG” was tested. Which binding signal did it give?
Answer: The binding signal was 8320 fluorescence intensity (a.u.).

Question: For “CTTCTAATTATTTGATATTAGGTCCTTCCTAATATTCGTACGGAGTCACCTAGTGCAG”, which binding signal is on record?
Answer: The binding signal was 18200 fluorescence intensity (a.u.).

Question: “CATTGATCAATTTGAAGATGGATTGATATGGAAATCTTAACGGAGTCACCTAGTGCAG” was tested. Which binding signal did it give?
Answer: The binding signal was 32000 fluorescence intensity (a.u.).

Question: For “GGGCTTAAATTAGATTGGGCCGGCCGTGCTGAGAAGCCTGCGGAGTCACCTAGTGCAG”, which binding signal is on record?
Answer: The binding signal was 21200 fluorescence intensity (a.u.).

Question: “AACCACTCAAATCTGAAATCAATCACCGAACCCAAGTGACCGGAGTCACCTAGTGCAG” was tested. Which binding signal did it give?
Answer: Its binding signal is 16300 fluorescence intensity (a.u.).

Question: How did the binding signal turn out when “TTTTATAATTCGATGACAAATTGAGAGACCTTGGGTGTACCGGAGTCACCTAGTGCAG” was run?
Answer: Its binding signal is 13200 fluorescence intensity (a.u.).

Question: “TCAAATGCTAATTAACAGACAACTAATCTTCCTCTCTCATCGGAGTCACCTAGTGCAG” was tested. Which binding signal did it give?
Answer: The binding signal was 24200 fluorescence intensity (a.u.).

Question: With “TGATTGATTGAGTTTTAATTATTATAAACTTGAAAATTAGCGGAGTCACCTAGTGCAG” as the sequence, how does the binding signal read?
Answer: The binding signal was 47800 fluorescence intensity (a.u.).

Question: With “TGTCTCAATAAATTGATCGTTGGCAAAATCGGTTAGTCGTCGGAGTCACCTAGTGCAG” as the sequence, how does the binding signal read?
Answer: The binding signal was 16900 fluorescence intensity (a.u.).

Question: How did the binding signal turn out when “AAAAGCAATTGATTACCTACATGGAAGAGGACATAGGAGGCGGAGTCACCTAGTGCAG” was run?
Answer: Its binding signal is 30700 fluorescence intensity (a.u.).

Question: For “ACTAACAGAAATATTTGACAGATGGCGAAAGGACCTGTAACGGAGTCACCTAGTGCAG”, which binding signal is on record?
Answer: The binding signal was 17000 fluorescence intensity (a.u.).

Question: “CAACGCCTGTAATTGCTCCTCCTGGCATGCAAGCCTTGTCCGGAGTCACCTAGTGCAG” was tested. Which binding signal did it give?
Answer: Its binding signal is 5050 fluorescence intensity (a.u.).

Question: Which binding signal does the source give for “GGACTGAGTTAATTTGAATCCAGCTTTTCCCACCATTTTCCGGAGTCACCTAGTGCAG” here?
Answer: The binding signal was 3750 fluorescence intensity (a.u.).

Question: For “CTTGTGGATGATTTGGGATATTTAGGGAGCAAATCGATTGCGGAGTCACCTAGTGCAG”, which binding signal is on record?
Answer: The binding signal was 3270 fluorescence intensity (a.u.).

Question: With “CGAAATTGCTCTTTCTAAGGGATATGCTTCCCTCTCACAACGGAGTCACCTAGTGCAG” as the sequence, how does the binding signal read?
Answer: The binding signal was 6540 fluorescence intensity (a.u.).

Question: “GTTTAAATTAAAACTTGAAAATATAAATCATGAATAAGTTCGGAGTCACCTAGTGCAG” was tested. Which binding signal did it give?
Answer: Its binding signal is 3300 fluorescence intensity (a.u.).

Question: Which binding signal does the source give for “AATATAAAGAATTACTTCAATCATGCAAGAAGAGGCAATTCGGAGTCACCTAGTGCAG” here?
Answer: The binding signal was 4560 fluorescence intensity (a.u.).

Question: With “TTTGATAAAATCATAGATGTAGATTTTAATGTGATCTGAGCGGAGTCACCTAGTGCAG” as the sequence, how does the binding signal read?
Answer: Its binding signal is 6270 fluorescence intensity (a.u.).

Question: For “CTTAATTAATCACGTACTAATGTATCGCTCCGTTTTCCGTCGGAGTCACCTAGTGCAG”, which binding signal is on record?
Answer: The binding signal was 40400 fluorescence intensity (a.u.).

Question: For “TTTCACTCATCAATTAAATTAGGCGGTTGATACTGAGTACCGGAGTCACCTAGTGCAG”, which binding signal is on record?
Answer: The binding signal was 17600 fluorescence intensity (a.u.).

Question: Which binding signal does the source give for “GCTAACCATAATGATGACAATTGCCTGACAGAGAAAGACACGGAGTCACCTAGTGCAG” here?
Answer: Its binding signal is 6440 fluorescence intensity (a.u.).

Question: How did the binding signal turn out when “ATGATTAACTATTACTGTACCAAGTTGGGCCAGGCTTGCACGGAGTCACCTAGTGCAG” was run?
Answer: The binding signal was 38000 fluorescence intensity (a.u.).

Question: For “TGCAAATGATGACAGTCACACGCATTAACGCCTTGGACGGCGGAGTCACCTAGTGCAG”, which binding signal is on record?
Answer: The binding signal was 12000 fluorescence intensity (a.u.).

Question: With “GCTCAATCCAATTTAACGTGCTACAAAGCTACTTCCTCCGCGGAGTCACCTAGTGCAG” as the sequence, how does the binding signal read?
Answer: The binding signal was 3240 fluorescence intensity (a.u.).

Question: How did the binding signal turn out when “GCTCCAATTAATCAACTTCCATCGTATCCATTGATCGATGCGGAGTCACCTAGTGCAG” was run?
Answer: The binding signal was 26500 fluorescence intensity (a.u.).

Question: “CTGCGGTGATTTCTAAACCATAGTAACCACAACTAAACAACGGAGTCACCTAGTGCAG” was tested. Which binding signal did it give?
Answer: Its binding signal is 3200 fluorescence intensity (a.u.).

Question: For “ATTAATTAACCCGTAAGCTATGCTGCGGCTGCACGGGCACCGGAGTCACCTAGTGCAG”, which binding signal is on record?
Answer: Its binding signal is 15600 fluorescence intensity (a.u.).

Question: With “CCACAATCAATTTAGATGGCTCATGAGATGCACTTAATATCGGAGTCACCTAGTGCAG” as the sequence, how does the binding signal read?
Answer: The binding signal was 15500 fluorescence intensity (a.u.).

Question: For “TGATAGATGGAAAATAAATTGGTAAAATTAGTAGATGGGACGGAGTCACCTAGTGCAG”, which binding signal is on record?
Answer: Its binding signal is 39700 fluorescence intensity (a.u.).

Question: How did the binding signal turn out when “CCAGTGATAGAGCCATCAGTCTATCTGGTGATCTAATCTACGGAGTCACCTAGTGCAG” was run?
Answer: The binding signal was 4390 fluorescence intensity (a.u.).

Question: For “CAATTCCTTAATCTAAACTCCTAATTATCTTTTGCCTACACGGAGTCACCTAGTGCAG”, which binding signal is on record?
Answer: The binding signal was 3860 fluorescence intensity (a.u.).

Question: “ATTCATTAACATATTGATGGCTTCATGCGGGTGGCCTTGGCGGAGTCACCTAGTGCAG” was tested. Which binding signal did it give?
Answer: Its binding signal is 4550 fluorescence intensity (a.u.).

Question: With “CCATATTCATTGGTAATCAGGAGATGGGTCAACATGGCATCGGAGTCACCTAGTGCAG” as the sequence, how does the binding signal read?
Answer: The binding signal was 3310 fluorescence intensity (a.u.).

Question: How did the binding signal turn out when “GATTTTGATAGGAATGTAAGTATAAAACAGAGGATTGTAACGGAGTCACCTAGTGCAG” was run?
Answer: The binding signal was 3360 fluorescence intensity (a.u.).

Question: How did the binding signal turn out when “ATTATTGAAAGTTATGTGACATTTATATAGTAAAAGATATCGGAGTCACCTAGTGCAG” was run?
Answer: The binding signal was 3270 fluorescence intensity (a.u.).

Question: With “TAACATTCCTTCAATTAACTAACTCAAACAGATGAACAAACGGAGTCACCTAGTGCAG” as the sequence, how does the binding signal read?
Answer: Its binding signal is 11400 fluorescence intensity (a.u.).

Question: For “TAGCTCATTCAAATTGACATTTGCACGATGATGAGTGTGCCGGAGTCACCTAGTGCAG”, which binding signal is on record?
Answer: Its binding signal is 11800 fluorescence intensity (a.u.).

Question: For “GGGGTGATTAGTCCTTATATTTATACACCGTATGTAGGGACGGAGTCACCTAGTGCAG”, which binding signal is on record?
Answer: The binding signal was 31400 fluorescence intensity (a.u.).

Question: With “TTTTGATAATTGGAGGAGTCGATATACCCGGTTTTGTGGTCGGAGTCACCTAGTGCAG” as the sequence, how does the binding signal read?
Answer: Its binding signal is 34900 fluorescence intensity (a.u.).
